As a reminder, the Kd is the constant that tells how readily two partners part at equilibrium. Low values mean tighter binding, high ones weaker binding. What is called stoichiometry N is a count of units in the complex or per binding partner.

Experiment [1] concerns the target FaRel2-Y128F (catalytically impaired toxSAS toxin) (Coprobacillus sp. D7). The experiment in a line: ITC; ATfaRel2 or variant in the syringe at 200-150 uM, FaRel2 in the cell at 15-20 uM; 25 °C; 25 mM HEPES pH 7.6, 300 mM NaCl, 2 mM MgCl2, 1 mM TCEP. (In general: Isothermal titration calorimetry measures the heat released or taken up as one component is titrated into another.)

Experiment [2] shares this target. The experiment in a line: SEC; analytical SEC, 150 ul of each protein at 1 mg/ml; 25 mM HEPES pH 7.6, 200 mM NaCl, 2 mM MgCl2, 1 mM TCEP.

On to ATfaRel2 A50M (natural protein), for which the Kd in experiment [1] is 38 nM.
In experiment [1], ATfaRel2 F59A (natural protein) yielded a fold decrease in affinity against WT ATfaRel2 of 60 fold and a stoichiometry N of 1.
The substance ATfaRel2 I45A (natural protein) returned a fold reduction in affinity against WT ATfaRel2 in experiment [1] of 25 fold.
The substance ATfaRel2 V43A (natural protein) registered a Kd in experiment [1] of 78.8 nM.
For the substance ATfaRel2 Y51A (natural protein), in experiment [1], the fold reduction in affinity against WT ATfaRel2 came to 43 fold.
Turning to ATfaRel2 Y54A (natural protein), the fold lower affinity than WT ATfaRel2 in experiment [1] is 250 fold.
For the substance “ATfaRel2 antitoxin (wild type) (natural protein)”, the stoichiometry N (ATfaRel2 per FaRel2 (2:2)) in experiment [2] came to 1. This substance gave a Kd in experiment [1] of 35.2 nM.
For the substance ATfaRel2-R47A (natural protein), the stoichiometry N (ATfaRel2 per FaRel2 (1:2 A:T)) in experiment [2] came out at 0.5. Besides, in experiment [1], the KD of the first high-affinity binding event was found to be 35 nM, the KD of the second lower-affinity recognition event is 750 nM, the N of the first high-affinity binding event worked out at 0.4 and the N of the second lower-affinity recognition event is 0.8.

The values above are taken from paper PMC11782079.
